From PubChem BioAssay AID485297 (National Center for Advancing Translational Sciences (NCATS), 2010)
In all, about 320,000 compounds went through this assay and about 9,100 (2.8%) were called active. The shares of active, inactive and inconclusive entries below differ from those in the screen. Calls follow the shape of the dose curve; as a rule, active = well fitted activation curve with a large enough effect; inconclusive = small, poorly fitted or top-dose-only effect; inactive = no such curve, though single readings can be large or run the other way. No potency is given beside an inconclusive call; the fits are too rough.

Assay: qHTS Assay for Rab9 Promoter Activators; also: nearly all actives have a fitted effect of over 60% in size; as to activation, negative = inhibition: % of control where 0% means no effect
Conditions: Huh7 Rab9 promoter-luciferase reporter, luminescence, 24 h; series mostly up to 9.22 µM; activation, negative = inhibition: at the top concentration
How it was run: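 Rab9 promoter-driven luciferase in stably transfected Huh7 cells; 1500 cells/well rested 2 h, exposed to compound in DMSO for 24 h at 37 °C, 5% CO2. Luminescence read 10 min after adding luciferase reagent at ambient temperature.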
Potency is read from the fitted curve at half-maximal effect; tags tell the direction and shape of the fitted curve.

SMILES	Potency	activation, negative = inhibition
CCN(CC)C(=O)COc1ccc(-c2ccccc2)cc1	inconclusive [activator, single point]	–
COc1cc(C(=O)C(=O)c2ccc(O)c(OC)c2)ccc1O	inconclusive [activator, single point]	–
COc1ccc(C(=O)N2CCN(c3ccc(NC(=O)c4cccs4)cc3)CC2)cc1	–	inactive: 0.657%
CCOC(=O)c1cc2n(c1C)-c1ccccc1C2=O	inconclusive [activator, single point]	–
COC(=O)C1=C(CN2CCSCC2)NC(=O)NC1c1cc(C)ccc1C (configuration not stated)	–	inactive: -14.5%
CCCCc1nc2cc(C(=O)N3CCC(O)CC3)ccc2o1	active: 2 µM	–
Cc1nn(-c2ccc(Br)cc2)c(=O)c2ccccc12	active: 2.82 µM	–
C/C(=N\Nc1nc2ccccc2[nH]1)c1ccc(N2CCOCC2)cc1	inconclusive [activator, partial curve]	–
COc1ccc2c(CC(=O)Nc3nccs3)coc2c1	inconclusive [activator, partial curve, poor fit]	–
Cc1ccc(-n2cc(CNCC3CC(=O)N(C4CC4)C3)c(-c3cccc(C)c3)n2)cc1 (configuration not stated)	–	inactive: 9.13%
COc1ccc(OC)c(S(=O)(=O)NC(C)c2cnn(-c3ccccn3)c2C)c1 (configuration not stated)	–	inactive: 9.27%
O=C(/C=C/c1ccco1)NC(=S)Nc1cc(-c2nc3ccccc3s2)ccc1Cl	inconclusive [activator, partial curve]	–
CCOC(=O)Cc1csc(NC(=O)c2sc3nc4c(C)cc(C)cc4cc3c2N)n1	–	inactive: 22.3%
CCCC(=O)Nc1ccc(NC(=O)c2ccccn2)cn1	active: 2.82 µM	–
Cn1c(/C=C/c2ccccc2)nc2ccccc2c1=O	inconclusive [activator, partial curve]	–
Nc1nnc(SCC(=O)c2ccco2)s1	–	inactive: 3.8%
COc1cccc(C2=N/C(=C\N(C)C)C(=O)O2)c1	inconclusive [activator, partial curve]	–
Cc1nc(-c2ccc([N+](=O)[O-])cc2)sc1C(=O)O	inconclusive [activator, partial curve]	–
O=C(Nc1ccc(-c2nc3ncccc3o2)cc1)c1ccc(Br)o1	–	inactive: 26.7%
CC(C)(C)NC(=O)c1cccc(NC(=O)c2cccc(O)c2)c1	–	inactive: 3.15%
CCCC(=O)Nc1nc2ccc(C(=O)OCC)cc2s1	inconclusive [activator, partial curve]	–
O=C(N/N=C/C=C/c1ccccc1)NC1CCCCC1	inconclusive [activator, single point]	–
O=C(Nc1cccc(-c2cn3cccnc3n2)c1)c1ccco1	–	inactive: 0.404%
CCCc1ccc(-c2cc(N)n[nH]2)cc1	inconclusive [activator, partial curve]	–
Cc1cccc(Nc2ccc([N+](=O)[O-])cn2)c1	inconclusive [activator, partial curve]	–
Cc1nc2ccccc2c(=O)n1/N=C/c1cccs1	inconclusive [activator, single point]	–

SMILES	Potency	activation, negative = inhibition
O=S(=O)(c1ccc2c(c1)OCCO2)N1CCC(c2nc3ccccc3[nH]2)CC1	–	inactive: -1.89%
CCCCCc1ccc(-c2ccc(/C=C/C(=O)O)cc2)nc1	inconclusive [activator, full curve, poor fit]	–
O=C(N/N=C\c1cc2c(cc1Cl)OCO2)c1cccs1	inconclusive [activator, partial curve]	–
Cn1c(SCC(=O)c2ccc(F)cc2)nnc1-c1ccccc1N	inconclusive [activator, partial curve]	–
CC(=O)c1cc2c(cc1NC(=O)CCC1CCCC1)OCO2	–	inactive: -7.76%
CCOc1ccc(OCc2ccc(C(=O)NN)o2)cc1	inconclusive [activator, partial curve, poor fit]	–
C/C(=N\NC(=O)c1n[nH]c2c1CCC2)c1cccs1	inconclusive [activator, full curve]	–
CC1CC(=O)Nc2ccccc2N1S(=O)(=O)c1cccc(F)c1 (configuration not stated)	inconclusive [activator, single point]	–
O=C(C#Cc1ccccc1)Nc1ccccc1F	inconclusive [activator, single point]	–
O=C(CCc1nnc(-c2ccccc2)o1)NC1CCCCC1	inconclusive [activator, single point]	–
COc1ccc(C(=O)Nc2ccccc2C(=O)Nc2ccc(C(=O)O)cc2)cc1	inconclusive [activator, partial curve]	–
CN(C)S(=O)(=O)c1ccc(Cl)c(NC(=O)COC(=O)CCC(=O)c2cccs2)c1	–	inactive: 13.9%
Cc1ccc(-c2cc(C(=O)Nc3cccnc3)[nH]n2)c(O)c1C	active: 3.98 µM	–
CCOC(=O)c1c(C)c(C(=O)Nc2ccc(F)cc2)c(C)n1C	–	inactive: 13.2%
COc1cc(-c2nnc3sc(C4CCCCC4)nn23)cc(OC)c1OC	–	inactive: -17.4%
O=C(c1ccco1)n1nc(-c2ccco2)nc1SCc1ccccc1	inconclusive [activator, single point]	–
COc1ccc(-c2ccc(SCC(=O)NC3CCCCC3)nn2)cc1OC	inconclusive [activator, partial curve]	–
O=C(CCCOc1ccccc1)N1CCCCC1	inconclusive [activator, full curve]	–
Cc1ccc(NC(=S)NC2CCCCC2)cc1S(=O)(=O)N(C)C	inconclusive [activator, single point]	–
CCOc1ccc(NC(=O)c2ccccc2CO)cc1	inconclusive [activator, partial curve]	–
CCc1cc2c(=O)[nH]c(N3CCCC3)nc2s1	inconclusive [activator, single point]	–
Cc1cc(Cl)ccc1OCCCC(=O)N1CCOCC1	inconclusive [activator, partial curve]	–
O=C(NC1CCCCC1)c1ccc(-c2ccccc2[N+](=O)[O-])o1	active: 1.41 µM	–
COC(=O)c1ccc(/C=N/NC(=S)NCCN2CCOCC2)cc1	–	inactive: -4.52%
COc1cc(/C=N/NC(=Nc2ccc(C)cc2)c2nc3ccccc3s2)ccc1O	inconclusive [activator, single point]	–
CCc1c(C)sc(NC(=O)c2cccs2)c1C(N)=O	inconclusive [activator, single point]	–

SMILES	Potency	activation, negative = inhibition
O=C(Nc1ccc2nc3n(c(=O)c2c1)CCCC3)c1cccc(F)c1	inconclusive [activator, partial curve]	–
Nc1nc(CCOc2ccc(F)cc2)cs1	inconclusive [activator, single point]	–
COC(=O)c1c(NC(C)=O)sc(C(=O)Nc2ccccc2F)c1C	inconclusive [activator, partial curve]	–
O=C(Nc1ccccc1C(=O)O)c1cc(S(=O)(=O)Nc2cccc(F)c2)ccc1Cl	–	inactive: -7%
O=C1C(=O)N(CCN2CCOCC2)C(c2ccc([N+](=O)[O-])cc2)/C1=C(/O)c1ccc2c(c1)OCO2 (configuration not stated)	inconclusive [activator, partial curve]	–
COc1ccc(-c2csc(N3CCC(C(N)=O)CC3)n2)cc1	inconclusive [activator, single point]	–
CCOC(=O)C1(Cc2ccccc2Cl)CCN(C(=O)CCn2ccnc2C)CC1	inconclusive [activator, single point]	–
O=C(O)c1ccc(N/N=C/c2ccc3ncccc3c2)cc1	inconclusive [activator, full curve, poor fit]	–
CC(C)c1ccccc1N1CC(C(=O)O)CC1=O (configuration not stated)	–	inactive: -3.6%
Cc1ccccc1NC(=S)NNC(=O)c1ccoc1C	inconclusive [activator, full curve]	–
Cc1c(Br)c([N+](=O)[O-])nn1C(C)C(=O)N1CCc2ccccc2C1 (configuration not stated)	inconclusive [activator, single point]	–
CC1(C)CC(/C=C/c2ccccc2)=Nc2ccccc2N1	inconclusive [activator, partial curve]	–
Cc1oc2ccc(O)c(CN3CCOCC3)c2c1C(=O)c1ccc(Cl)cc1	inconclusive [activator, single point]	–
C(=C\c1nc(-c2ccccc2)no1)/c1ccccc1	active: 0.562 µM	–
Cc1ccc(NC(=O)CCc2c(C)nn(-c3ccc(N4CCCCC4)nn3)c2C)cc1C	inconclusive [activator, partial curve]	–
O=C(CSc1ccccc1)N1CCCC(Nc2ccccc2)C1 (configuration not stated)	–	inactive: -0.64%
C/C(=N/N=C/c1ccccc1O)c1ccccc1O	inconclusive [activator, single point]	–
c1ccc(OCc2nc3ccccc3s2)cc1	active: 2.82 µM	–
O=C(Nc1ccccc1F)c1ccc(CSc2ncccn2)cc1	active: 3.55 µM	–
Cc1nc(-c2ccc(NC(=O)C3CCCCC3)cc2)cs1	active: 2.82 µM	–
Nc1ccc(-c2nc3ccc(N)cc3[nH]2)cc1	inconclusive [activator, partial curve]	–
O=C1CCC(C(=O)Nc2cccc3ccccc23)N1 (configuration not stated)	–	inactive: -1.9%
CC1CCCN(C(=O)CSc2cnc3ccccc3n2)C1 (configuration not stated)	inconclusive [activator, partial curve]	–
COc1ccccc1OC(=O)c1ccc(S(=O)(=O)N(C)C)cc1	–	inactive: -1.77%
Cc1nc(NC(=O)c2ccc3c(c2)OCO3)ccc1Br	active: 3.55 µM	–
